The record followed here is patent US7531646B2, “β-D-ribosidase activity indicators with a chromogenic substrate” (priority 2001, dated 2009).

Experiment [1] has as its system E. faecalis. The experiment is described as follows: Evaluation of benzophenone glucoside on agar (Table 6). Also noted: key: ++: strong growth; Tr: trace growth. Particulars: ferric ammonium nitrate at 500 mg/l. The source says: (§1) This was achieved using a densitometer.
(§2) The background agar was beige.

Experiment [2] has as its system L. monocytogenes. The experiment is described as above. Set-up: key: ++: strong growth; Tr: trace growth. Particulars: ferric ammonium nitrate at 500 mg/l.
Excerpt: as §1, §2

The test system of experiment [3] is Serratia spp. The experiment is described as follows: Substrate hydrolysis on Columbia agar. Also noted: key: +: Positive reaction with the substrate; ++: Strong positive reaction with the substrate; −: No detectable reaction; −*: indicates expected positive reaction as determined using indoxyl glucosides. Particulars: 300 mg/l, 18 hours.
Excerpt: as §1
(§3) The same method was used as in Example 1.

In experiment [4] the test system is E. cloacae. Nature of the experiment: Substrate hydrolysis on Columbia agar. Set-up: key: +: Positive reaction with the substrate; ++: Strong positive reaction with the substrate; −: No detectable reaction; −*: indicates expected positive reaction as determined using indoxyl glucosides. Particulars: 300 mg/l, 18 hours.
Excerpt: as §1, §3

The test system of experiment [5] is K. pneumoniae. Nature of the experiment: Substrate hydrolysis on Columbia agar. Also noted: key: +: Positive reaction with the substrate; ++: Strong positive reaction with the substrate; −: No detectable reaction; −*: indicates expected positive reaction as determined using indoxyl glucosides. Particulars: 300 mg/l, 18 hours.
Excerpt: as §1, §3

Regarding `COc1c(C(=O)c2ccccc2)ccc(O[C@@H]2O[C@H](CO)[C@@H](O)[C@H](O)[C@H]2O)c1O` [3,4-dihydroxy-2-methoxybenzophenone-4-β-D-glucopyranoside], the growth entry in experiment [1] and in experiment [2] was “Tr” throughout.
As for “3′,4′-dihydroxyflavone-4′-β-D-glucopyranoside sodium salt [DHF-glucoside]”, the “Hydrolysis by Gram negative bacteria” value in experiment [3] (Serratia spp. SEX 3), in experiment [3] (Serratia spp. SEX 4), in experiment [4] (E. cloacae ECL 1), in experiment [4] (E. cloacae ECL 2), in experiment [4] (E. cloacae ECL 3) and in experiment [4] (E. cloacae ECL 4) was “−*” each time. The “Hydrolysis by Gram negative bacteria” value in experiment [4] (E. cloacae NCTC 11936), in experiment [5] (K. pneumoniae KPN 2), in experiment [5] (K. pneumoniae KPN 3), in experiment [5] (K. pneumoniae KPN 4) and in experiment [5] (K. pneumoniae NCTC 10896) was “−*” in each case.
